In all, about 310,000 compounds went through this assay and about 2,200 (0.71%) showed an effect of 50% or more. Effects have a minus sign here. Some of the results follow.

The record followed here is paper PMC4336329 (PLoS ONE, 2015).

This assay deals with human ether-à-go-go-related gene (hERG) potassium channel (human, UniProt Q12809). The assay is described as follows: primary screen, population patch clamp on CHO cells stably expressing hERG.
human ether-à-go-go-related gene (hERG) potassium channel, sequence (Q12809 whole entry, looked up): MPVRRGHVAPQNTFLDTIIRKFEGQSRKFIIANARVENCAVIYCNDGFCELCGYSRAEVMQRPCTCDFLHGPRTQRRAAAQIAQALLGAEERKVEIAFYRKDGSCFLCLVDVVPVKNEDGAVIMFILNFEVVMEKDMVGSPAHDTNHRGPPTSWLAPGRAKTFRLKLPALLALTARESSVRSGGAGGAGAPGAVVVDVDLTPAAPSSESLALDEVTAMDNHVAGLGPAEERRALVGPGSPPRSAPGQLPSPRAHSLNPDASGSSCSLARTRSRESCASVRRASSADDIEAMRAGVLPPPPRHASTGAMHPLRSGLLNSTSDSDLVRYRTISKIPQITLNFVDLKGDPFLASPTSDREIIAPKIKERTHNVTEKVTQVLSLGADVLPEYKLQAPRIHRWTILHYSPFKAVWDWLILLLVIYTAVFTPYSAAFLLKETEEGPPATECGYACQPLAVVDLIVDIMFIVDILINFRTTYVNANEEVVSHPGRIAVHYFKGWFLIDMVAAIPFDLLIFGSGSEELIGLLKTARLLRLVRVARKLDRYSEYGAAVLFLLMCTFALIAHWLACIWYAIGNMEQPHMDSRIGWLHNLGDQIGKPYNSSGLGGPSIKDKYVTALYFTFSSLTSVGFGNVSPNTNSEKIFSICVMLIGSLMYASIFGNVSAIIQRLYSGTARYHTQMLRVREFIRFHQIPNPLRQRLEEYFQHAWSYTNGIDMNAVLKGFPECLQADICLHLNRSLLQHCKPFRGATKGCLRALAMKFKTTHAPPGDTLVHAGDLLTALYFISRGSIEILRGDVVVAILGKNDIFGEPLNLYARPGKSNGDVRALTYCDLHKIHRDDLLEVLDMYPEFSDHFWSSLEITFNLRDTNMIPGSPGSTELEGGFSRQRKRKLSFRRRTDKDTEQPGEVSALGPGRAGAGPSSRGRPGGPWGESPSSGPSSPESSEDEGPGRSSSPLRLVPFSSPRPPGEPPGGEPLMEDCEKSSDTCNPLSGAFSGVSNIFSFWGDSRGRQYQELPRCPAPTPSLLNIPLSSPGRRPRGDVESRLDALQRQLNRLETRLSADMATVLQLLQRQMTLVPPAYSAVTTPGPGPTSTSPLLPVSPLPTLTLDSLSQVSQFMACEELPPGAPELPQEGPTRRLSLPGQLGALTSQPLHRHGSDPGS
For `COc1ccc(N(CC(=O)NCCc2ccc(Cl)cc2)S(=O)(=O)c2c(C)[nH]c(=O)[nH]c2=O)cc1`, the “hERG current change (%, negative = inhibition) at 1uM” value is -0.561%.
As to `C/C(=N\NC1=NCCN1)c1ccc(Cl)cc1`, the “hERG current change (%, negative = inhibition) at 1uM” value was -1.91%.
For the molecule `COc1ccc(NC(=O)CCc2nc(-c3ccc(C)cc3)no2)cc1Cl`, the “hERG current change (%, negative = inhibition) at 1uM” value worked out at 15.9%.
Take `COc1cc(NC(=O)C2C3C=CC(C3)C2C(=O)O)c(OC)cc1Cl` (stereo not shown): the “hERG current change (%, negative = inhibition) at 1uM” value was 15.1%.
Consider `CCN1CNC(=S)N(C(C)c2ccccc2)C1` (stereo not shown), for which the “hERG current change (%, negative = inhibition) at 1uM” value was 1.75%.
With `CC1CCCCN1CCCNC(=O)C1CCCN(c2ncnc3c2nc2n3CCCCC2)C1` (stereo not shown), the “hERG current change (%, negative = inhibition) at 1uM” value was 13.7%.
`O=C1C=C2C=C[C@@H]3CC2(O1)[C@H]1CCCCN31`: the “hERG current change (%, negative = inhibition) at 1uM” value is recorded as 5.28%.
Consider `COc1ccc([C@H]2CC(=O)C=C(c3ccc(CNC(=O)OC(C)(C)C)cc3)C2)cc1`, for which the “hERG current change (%, negative = inhibition) at 1uM” value is on record as 7.81%.
Turning to `CC(C)CC(=O)NC(=S)Nc1ccc(S(=O)(=O)N2CCN(C)CC2)cc1`, the “hERG current change (%, negative = inhibition) at 1uM” value is recorded as 16%.
For the molecule `CCOc1ccc(C(=O)Nc2ccc(N3CCN(C)CC3)cc2)cc1Br`, the “hERG current change (%, negative = inhibition) at 1uM” value was found to be 1.4%.
Take `Cc1ccc(C)c(-n2ccnc2SCC(=O)Nc2cccc(S(=O)(=O)NC3=NCCC3)c2)c1`: the “hERG current change (%, negative = inhibition) at 1uM” value is reported as -9.61%.
As to `COC(=O)c1ccccc1-n1c(C)nc(=O)c(-c2ccccc2)c1C`, the “hERG current change (%, negative = inhibition) at 1uM” value is on record as 11.1%.
The figure for `Cc1sc(NC(=O)CN(Cc2ccc(F)cc2)C(=O)C(C)(C)C)c(C(N)=O)c1C` is 2.43%; for `CCOC(=O)CSc1ccc2nnc(CCNS(=O)(=O)c3ccc(C)cc3)n2n1` it is 8.85%; for `CCN1CN=C(NS(=O)(=O)c2ccc(C)cc2)NC1` it is 5.8%.
For the molecule `CCOC(=O)c1oc2ccccc2c1COC(=O)CNC(=O)c1ccccc1OC`, the “hERG current change (%, negative = inhibition) at 1uM” value is -0.254%.
Consider `Cc1nc(=O)c(-c2ccccc2)c(C)n1-c1ccc(O)cc1`, for which the “hERG current change (%, negative = inhibition) at 1uM” value is 6.86%.
`CC(C)C[C@H](NC(=O)c1nc[nH]c1C(=O)N1CC[NH2+]CC1)C(=O)OCc1ccccc1.[Cl-]`: the “hERG current change (%, negative = inhibition) at 1uM” value was determined as 13.4%.
In the case of `Cn1c(=O)c2c(nc(CN3CCN(c4ccccc4)CC3)n2CCc2ccccc2)n(C)c1=O`, the “hERG current change (%, negative = inhibition) at 1uM” value is recorded as 0.316%.
Consider `CC(C)Cc1cc(C(=O)N2CCCC(C(=O)c3cc(F)ccc3F)C2)n(C)n1` (stereo not shown), for which the “hERG current change (%, negative = inhibition) at 1uM” value amounted to 12.4%.
The figure for `O=C(Nc1cccnc1)C1COc2ccccc2O1` (stereo not shown) is 9.49%; for `CC(=O)Nc1ccc(OC(=O)c2ccc(Cl)cc2)cc1` it is 19.1%; for `CCOC(=O)c1cnc2c(ccc3ccccc32)c1NCCN(C)C` it is 6.07%.
For `O=C(Nc1ccccn1)C1CCN(C(=O)Nc2ccccc2)CC1`, the “hERG current change (%, negative = inhibition) at 1uM” value came out at 12.7%.
Take `O=C(CSc1nc2ccccc2c(=O)n1CC1CCCO1)Nc1ccccc1Cl` (stereo not shown): the “hERG current change (%, negative = inhibition) at 1uM” value is on record as 10.9%.
For the molecule `COC(=O)c1ccccc1NC(=O)CSc1nnnn1C`, the “hERG current change (%, negative = inhibition) at 1uM” value was 2.12%.
In the case of `COc1ccc(OC)c(C(=O)COC(=O)c2cccnc2Cl)c1`, the “hERG current change (%, negative = inhibition) at 1uM” value came out at 12%.
In the case of `COc1nc(Nc2ccc(C(C)=O)cc2)nc(OC)n1`, the “hERG current change (%, negative = inhibition) at 1uM” value amounted to 6.11%.
Regarding `CCOc1ccc(S(=O)(=O)Nc2ccc(C(=O)NCC(C)(C)N3CCOCC3)cc2)cc1`, the “hERG current change (%, negative = inhibition) at 1uM” value is given as 10.7%.
Regarding `CCC(C)c1ccccc1NC(=S)Nc1cccnc1` (stereo not shown), the “hERG current change (%, negative = inhibition) at 1uM” value was determined as 16.6%.
To `COc1cc(CN2CCNC(=O)C2CC(=O)O)cc(OC)c1` (stereo not shown) belongs 9.16%; to `NC(=O)c1cccnc1Sc1ccc(Cl)cc1`, -1.09%.
For `Cc1cccc(OCC(=O)Nc2ccc(N3CCN(S(C)(=O)=O)CC3)cc2)c1C`, the “hERG current change (%, negative = inhibition) at 1uM” value is given as 3.69%.
On to `CCC(C(=O)Nc1ccc(S(=O)(=O)N(C)C2CCN(C)CC2)cc1)c1ccccc1` (stereo not shown), for which the “hERG current change (%, negative = inhibition) at 1uM” value is 7.94%.
On to `Nc1nc(-c2cccc(NS(=O)(=O)c3ccccc3)c2)cs1`, for which the “hERG current change (%, negative = inhibition) at 1uM” value turned out to be 13.6%.
On to `O=C(O)C1C2C=CC3(CN(Cc4ccco4)C(=O)C13)O2` (stereo not shown), for which the “hERG current change (%, negative = inhibition) at 1uM” value was determined as 9.03%.
Consider `COc1ccc(C(=O)OCC(=O)Nc2ccc3c(c2)OCCO3)c(OC)c1`, for which the “hERG current change (%, negative = inhibition) at 1uM” value is 10.6%.
On to `CC(C)N(C(=O)CSc1nn2c(=O)c(C(C)(C)C)nnc2s1)c1ccccc1`, for which the “hERG current change (%, negative = inhibition) at 1uM” value came out at 5.43%.
As for `Cc1cc(C(=O)O)sc1C`, the “hERG current change (%, negative = inhibition) at 1uM” value was found to be 11.2%.
Take `CCCCCNc1nc2ccccc2nc1NS(=O)(=O)c1cccs1`: the “hERG current change (%, negative = inhibition) at 1uM” value is reported as 4.54%.
To `Cc1ccc(CNC(=O)CCSCc2cccc(F)c2)cc1` belongs 7.07%; to `Cc1ccc(SCC(=O)NCCSCc2ccccc2)cc1`, 5.45%.
Take `O=C(NCc1ccccc1)c1c[nH]c2ccc(F)cc2c1=O`: the “hERG current change (%, negative = inhibition) at 1uM” value is recorded as 8.61%.
To `C=C(C)Cn1c(Sc2nnc(C)s2)nc2c1c(=O)[nH]c(=O)n2C` belongs 21.7%; to `O=C1CSC(c2ccc([N+](=O)[O-])cc2)N1c1ccccc1F` (stereo not shown), 9.45%; to `O=C(Nc1ccccc1C(=O)NCc1ccc(Cl)cc1)c1ccco1`, 2.14%.
`Cc1ccc(CC2C(=O)N(C)C(=O)N(C)C2=O)s1`: the “hERG current change (%, negative = inhibition) at 1uM” value is on record as -7.49%.
The figure for `COc1ccc(NC(=O)c2ccc(-n3cncn3)c([N+](=O)[O-])c2)cc1OC` is 10.9%; for `CCC(C)[C@H](NC(=O)N1CCN(c2cccc(C(F)(F)F)c2)CC1)C(=O)OC` (stereo partly shown) it is -1.88%.
In the case of `CC(=O)Nc1nc(CC(=O)c2ccccc2)cs1`, the “hERG current change (%, negative = inhibition) at 1uM” value stood at 13%.
In the case of `O=C(NCCCCO)c1ccc2c3c(cccc13)CC2`, the “hERG current change (%, negative = inhibition) at 1uM” value is reported as 7.93%.
`S=C(Nc1ccccc1Cl)N(Cc1ccccc1)Cc1cccnc1`: the “hERG current change (%, negative = inhibition) at 1uM” value worked out at 12%.
Take `O=C(c1cc2ncc(Br)cn2n1)N1CCCCC1`: the “hERG current change (%, negative = inhibition) at 1uM” value amounted to 5.05%.
The figure for `C=CCn1c(SCC(=O)N(CCOC)c2c(N)n(CC(C)C)c(=O)[nH]c2=O)nc2ccccc21` is 12.5%; for `Cc1ccc(Sc2ccc(NC(=O)c3ccc(S(C)(=O)=O)cc3Cl)cc2)cc1` it is 5.66%.
In the case of `COc1cccc(CN2CCCN(S(=O)(=O)c3ccc(Br)cc3)CC2)c1`, the “hERG current change (%, negative = inhibition) at 1uM” value is given as -22.3%.
Consider `Cc1ccc(NC(=O)c2cc([N+](=O)[O-])ccc2Cl)c(O)c1`, for which the “hERG current change (%, negative = inhibition) at 1uM” value is listed as 7.08%.
On to `Cc1ccc2c(c1)COc1c3ccc(C(=O)N[C@@H](CO)C(C)C)cc3nn1-2`, for which the “hERG current change (%, negative = inhibition) at 1uM” value is listed as 3.97%.
